B1: GPR68, Q15743 (parent)
chain: MGNITADNSSMSCTIDHTIHQTLAPVVYVTVLVVGFPANCLSLYFGYLQIKARNELGVYLCNLTVADLFYICSLPFWLQYVLQHDNWSHGDLSCQVCGILLYENIYISVGFLCCISVDRYLAVAHPFRFHQFRTLKAAVGVSVVIWAKELLTSIYFLMHEEVIEDENQHRVCFEHYPIQAWQRAINYYRFLVGFLFPICLLLASYQGILRAVRRSHGTQKSRKDQIQRLVLSTVVIFLACFLPYHVLLLVRSVWEASCDFAKGVFNAYHFSLLLTSFNCVADPVLYCFVSETTHRDLARLRGACLAFLTCSRTGRAREAYPLGAPEASGKSGAQGEEPELLTKLHPAFQTPNSPGSGGFPTGRLA

Variants of B1 are the subject of data set [1]. The data set can be described thus: cAMP reporter score (Enrich2 score, wild type = 0); higher = more signal; HEK293T, FACS bins.
The variants in data set [2] derive from B1. The data set can be described thus: surface expression score (Enrich2 score, wild type = 0); higher = more signal; HEK293T, FACS bins.

Scores whose standard error is large were omitted. Two further conditions of the source, in which the scores hardly spread, are not listed. In variant names, del marks residues removed and ins residues inserted between the two positions. For some assays here: How much ogerin was present is not stated here.

Results on 32 variants are retold here after the GPR68 mutational scans of Howard et al. (2025).

Turning to Q83_H84del, the cAMP reporter score in data set [1] (pH 5.5) is -2.12; in data set [1] (pH 6), -1.05; in data set [1] (pH 6, modulator: ogerin), -1.15; in data set [1] (pH 6.5, modulator: ogerin), -1.31. Further, in data set [2], the surface expression score was -1.5.
On the same counts, the results for D85C are -0.446, -0.369, 0.336, 0.993 and -1.98.
On the same counts, the results for D85A are -1.46, -0.95, -0.616, -1.07 and -0.03.
Regarding Q83_H84insGSG, the cAMP reporter score in data set [1] (pH 5.5) was -1.71; in data set [1] (pH 6) it was -1.46; in data set [1] (pH 6, modulator: ogerin), -1.53; in data set [1] (pH 6.5, modulator: ogerin), -0.342. Moreover, the surface expression score in data set [2] came out at 0.465.
On the same counts, the results for S73I are -1.64, -1.13, -2.47, -1.41 and -1.42.
Taken in the same sequence, the figures for S73W were -1.41, -1.19, -1.2, -1.08 and -0.788.
On the same counts, the results for S73A are 0.234, 0.031, 0.311, 0.748 and -0.941.
As to S73F, the cAMP reporter score in data set [1] (pH 5.5) was -0.901; in data set [1] (pH 6) it was -0.69; in data set [1] (pH 6, modulator: ogerin) it was -0.885; in data set [1] (pH 6.5, modulator: ogerin), -0.688. Further, in data set [2], the surface expression score was -0.527.
On the same counts, the results for S73E are -1.21, -1.22, -1.73, -1.84 and -2.16.
As to S73V, the cAMP reporter score in data set [1] (pH 5.5) is 0.174; in data set [1] (pH 6), -0.267; in data set [1] (pH 6, modulator: ogerin) it was -0.93; in data set [1] (pH 6.5, modulator: ogerin) it was -0.824. In addition, the surface expression score in data set [2] is -2.42.
Consider S73Q, for which the cAMP reporter score in data set [1] (pH 5.5) was -0.88; in data set [1] (pH 6), -0.654; in data set [1] (pH 6, modulator: ogerin), -1.29; in data set [1] (pH 6.5, modulator: ogerin) it was -1.9. Moreover, the surface expression score in data set [2] was -1.37.
Turning to S73D, the cAMP reporter score in data set [1] (pH 5.5) is 0.421; in data set [1] (pH 6, modulator: ogerin) it was -0.748; in data set [1] (pH 6.5, modulator: ogerin), -0.928.
In the case of S73G, the cAMP reporter score in data set [1] (pH 5.5) is 0.476; in data set [1] (pH 6, modulator: ogerin) it was 0.388; in data set [1] (pH 6.5, modulator: ogerin), -0.695. Further, the surface expression score in data set [2] turned out to be 0.078.
Consider S73R, for which the cAMP reporter score was -0.421 in data set [1] (pH 5.5); -0.694 in data set [1] (pH 6, modulator: ogerin); -0.395 in data set [1] (pH 6.5, modulator: ogerin). The surface expression score in data set [2] was -0.283.
In the case of S73M, the cAMP reporter score in data set [1] (pH 5.5) was -0.428; in data set [1] (pH 6), -1.09; in data set [1] (pH 6.5, modulator: ogerin) it was -0.61.
Consider S73L, for which the cAMP reporter score in data set [1] (pH 5.5) was -1.06; in data set [1] (pH 6, modulator: ogerin) it was -1.53; in data set [1] (pH 6.5, modulator: ogerin) it was -1.46. For the same variant, in data set [2], the surface expression score was -0.485.
As to S73P, the cAMP reporter score is -0.736 in data set [1] (pH 5.5); -0.384 in data set [1] (pH 6); -0.755 in data set [1] (pH 6, modulator: ogerin); -0.411 in data set [1] (pH 6.5, modulator: ogerin). Besides, the surface expression score in data set [2] was -0.664.
As to S73K, the cAMP reporter score in data set [1] (pH 5.5) was -1.18; in data set [1] (pH 6) it was -0.255.
On to S73H, for which the cAMP reporter score in data set [1] (pH 5.5) was -0.713; in data set [1] (pH 6) it was -0.009; in data set [1] (pH 6, modulator: ogerin), -1.16; in data set [1] (pH 6.5, modulator: ogerin) it was -0.942. Also, the surface expression score in data set [2] is -1.77.
Consider S73T, for which the cAMP reporter score is 0.493 in data set [1] (pH 5.5); -0.389 in data set [1] (pH 6); 0.345 in data set [1] (pH 6, modulator: ogerin); 0.754 in data set [1] (pH 6.5, modulator: ogerin). In addition, the surface expression score in data set [2] is 1.25.
On to S73C, for which the cAMP reporter score in data set [1] (pH 5.5) stood at 0.209; in data set [1] (pH 6), 2.21; in data set [1] (pH 6, modulator: ogerin), 0.395; in data set [1] (pH 6.5, modulator: ogerin), 0.334. In data set [2], the surface expression score stood at 0.58.
S73Y: the cAMP reporter score in data set [1] (pH 5.5) is -1.81; in data set [1] (pH 6), -0.662; in data set [1] (pH 6, modulator: ogerin), -0.88; in data set [1] (pH 6.5, modulator: ogerin), -0.99. In addition, the surface expression score in data set [2] was -0.814.
Take T64M: the cAMP reporter score is -0.742 in data set [1] (pH 5.5); 2.22 in data set [1] (pH 6); 0 in data set [1] (pH 6, modulator: ogerin); 1.35 in data set [1] (pH 6.5, modulator: ogerin). For the same variant, the surface expression score in data set [2] is -0.994.
On the same counts, the results for T64R are 1.03, 5.25, 0.963, 4.12 and -1.71.
On to T64S, for which the cAMP reporter score in data set [1] (pH 5.5) amounted to 0.104; in data set [1] (pH 6, modulator: ogerin), 1.36. In data set [2], the surface expression score is -0.234.
As for T64C, the cAMP reporter score was determined as 0.93 in data set [1] (pH 5.5); 6.02 in data set [1] (pH 6); 2.13 in data set [1] (pH 6, modulator: ogerin). In addition, the surface expression score in data set [2] was 2.74.
Take T64V: the cAMP reporter score in data set [1] (pH 5.5) was 0.743; in data set [1] (pH 6) it was 4.83; in data set [1] (pH 6, modulator: ogerin), 1.46; in data set [1] (pH 6.5, modulator: ogerin) it was 3.41. Moreover, the surface expression score in data set [2] was found to be 0.044.
Turning to T64W, the cAMP reporter score in data set [1] (pH 5.5) is -0.045; in data set [1] (pH 6), 2.54; in data set [1] (pH 6, modulator: ogerin), -0.844; in data set [1] (pH 6.5, modulator: ogerin), 1.61. For the same variant, in data set [2], the surface expression score was -1.24.
Taken in the same sequence, the figures for T64N were 0.521, 1.79, 0.554, 1.21 and -0.979.
Turning to T64L, the cAMP reporter score in data set [1] (pH 5.5) is 1.58; in data set [1] (pH 6) it was 3.35; in data set [1] (pH 6, modulator: ogerin) it was 1.73; in data set [1] (pH 6.5, modulator: ogerin), 2.66. Besides, the surface expression score in data set [2] was found to be 1.47.
Turning to T64E, the cAMP reporter score is -1.51 in data set [1] (pH 5.5); -1.08 in data set [1] (pH 6); -2.11 in data set [1] (pH 6, modulator: ogerin); -1.6 in data set [1] (pH 6.5, modulator: ogerin). Besides, the surface expression score in data set [2] is -3.1.
For the variant T64P, the cAMP reporter score in data set [1] (pH 5.5) was -0.761; in data set [1] (pH 6, modulator: ogerin), -1.06; in data set [1] (pH 6.5, modulator: ogerin), -0.321. Besides, the surface expression score in data set [2] is -2.52.
